Screen size: about 310,000 compounds; about 14,000 (4.5%) showed an effect of 50% or more. The effect is printed as a negative number. The list shows a part of the results.
target: human ether-à-go-go-related gene (hERG) potassium channel (human, UniProt Q12809); assay: primary screen, population patch clamp on CHO cells stably expressing hERG
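Also: peak tail current of the secondary pulse compared with the same well before compound.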

Sequence of human ether-à-go-go-related gene (hERG) potassium channel (Q12809 whole entry, looked up): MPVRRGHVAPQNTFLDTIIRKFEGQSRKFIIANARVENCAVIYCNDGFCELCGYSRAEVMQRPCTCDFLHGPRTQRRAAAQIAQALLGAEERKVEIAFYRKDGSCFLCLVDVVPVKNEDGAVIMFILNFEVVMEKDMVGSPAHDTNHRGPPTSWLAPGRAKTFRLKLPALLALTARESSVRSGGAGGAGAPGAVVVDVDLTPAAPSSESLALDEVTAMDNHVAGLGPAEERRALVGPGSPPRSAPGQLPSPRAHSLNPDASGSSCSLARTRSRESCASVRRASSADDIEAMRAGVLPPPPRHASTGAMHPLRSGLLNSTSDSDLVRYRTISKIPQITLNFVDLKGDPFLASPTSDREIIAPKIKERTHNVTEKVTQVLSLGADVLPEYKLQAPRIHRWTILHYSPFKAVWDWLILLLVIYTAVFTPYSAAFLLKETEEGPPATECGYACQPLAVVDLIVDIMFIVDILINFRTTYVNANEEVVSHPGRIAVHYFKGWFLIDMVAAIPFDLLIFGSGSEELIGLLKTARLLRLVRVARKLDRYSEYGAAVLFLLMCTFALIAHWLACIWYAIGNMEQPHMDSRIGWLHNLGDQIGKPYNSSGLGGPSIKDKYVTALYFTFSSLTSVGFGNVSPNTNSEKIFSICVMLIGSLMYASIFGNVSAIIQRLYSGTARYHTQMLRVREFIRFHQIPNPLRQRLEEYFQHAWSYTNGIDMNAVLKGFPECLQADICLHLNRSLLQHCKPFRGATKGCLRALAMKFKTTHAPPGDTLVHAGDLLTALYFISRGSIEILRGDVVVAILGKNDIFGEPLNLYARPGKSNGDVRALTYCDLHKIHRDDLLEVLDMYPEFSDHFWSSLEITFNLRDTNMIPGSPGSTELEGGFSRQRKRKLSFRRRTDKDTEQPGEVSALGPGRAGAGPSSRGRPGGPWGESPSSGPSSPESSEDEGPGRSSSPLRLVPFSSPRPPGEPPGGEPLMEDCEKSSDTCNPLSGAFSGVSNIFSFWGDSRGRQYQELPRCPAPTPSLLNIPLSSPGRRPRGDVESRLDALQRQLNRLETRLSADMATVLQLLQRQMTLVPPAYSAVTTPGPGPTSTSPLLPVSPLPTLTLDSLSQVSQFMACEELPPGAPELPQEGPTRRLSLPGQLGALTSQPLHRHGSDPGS

SMILES | hERG current change (%, negative = inhibition) at 10uM [%]
O=[N+]([O-])c1ccc(-c2cnc(NO)nc2)cc1 | -28
O=C(NCc1ccc(F)cc1)C1CCCN(S(=O)(=O)c2cccc3nonc23)C1 (stereo not drawn) | 19.6
Cc1cccc(C#Cc2ccccc2)n1.Cl | -2.49
Cc1c(C(=O)NCc2cccnc2)oc2ccc(S(=O)(=O)N3CCCC(C)C3)cc12 (stereo not drawn) | -3.86
COc1ccc(NC(=O)O/N=C/c2ccc(N(C)C)cc2)cc1 | 1.19
O=C(COc1ccc(Cl)cc1Cl)N/N=C/c1ccc(OC2OC(CO)C(O)C(O)C2O)cc1 (stereo not drawn) | -11.5
Cc1cc(C)n(CCO)c(=O)n1.Cl | 29
CC(C)c1ccc(NC(=O)CSc2nc(=O)[nH]c3c2CCCC3)cc1 | -23.9
Cc1cccc(NC(=O)c2ccc(NCC3CCCO3)c([N+](=O)[O-])c2)c1 (stereo not drawn) | -0.991
COCCSc1ccccc1C(=O)NCc1cccnc1 | 18.7
COc1cc(OC)c([N+](=O)[O-])cc1/C=N/NC(=O)c1ccncc1 | -7.21
COc1cc(O)c(C(CCN2CCOCC2)c2ccc(N(C)C)cc2)c(OC)c1 (stereo not drawn) | 7.96
O=C(C1CCCN(S(=O)(=O)c2cccc3nsnc23)C1)N1CCc2ccccc21 (stereo not drawn) | -21.9
COc1ccccc1C(=O)C1CCCN(Cc2cccc(OCCO)c2)C1 (stereo not drawn) | -19.6
CC(C)N(CCCNC(=O)C1CCC(CNS(=O)(=O)c2ccccc2)CC1)Cc1ccccc1 (stereo not drawn) | -42.1
COc1ccc(OC)c(NC(=O)c2cccnc2Sc2cc(C)ccc2C)c1 | -2.28
O=C(c1cc(Cl)ccc1O)N1CCN(S(=O)(=O)c2cccs2)CC1 | 8.1
CCCC(c1nnnn1CS(=O)(=O)c1ccc(C)cc1)N1CCN(c2ccc(F)cc2)CC1 (stereo not drawn) | -4.41
Cc1c(-c2ccccc2)oc2c(C(=O)N3CCN(c4ccc([N+](=O)[O-])cc4)CC3)cccc2c1=O | -75.4

SMILES | hERG current change (%, negative = inhibition) at 10uM [%]
Cc1ccccc1N1CCN(C2CCCN(C(=O)Cc3c(C)noc3C)C2)CC1 (stereo not drawn) | -8.91
O=C(NCc1cccnc1)Nc1ccc(Cl)cc1 | -41.5
Cc1onc(-c2c(Cl)cccc2Cl)c1CO/N=C(\C#N)c1c(Cl)cccc1Cl | 16.5
CCOC(=O)C1=C(c2cccc(F)c2)NC(=S)NC1C (stereo not drawn) | -9.26
CCOC(=O)c1sc2nc(NC(=O)COc3ccccc3)sc2c1C | 11.9
CCOc1ccc(/C=C/C(=O)OCC(=O)Nc2cccc(S(=O)(=O)N3CCCC3)c2)cc1 | -22.5
Cn1cc(CC(=O)NCCN2CCOCC2)c2ccccc21 | 2.23
COc1ccc(CC(CC(=O)O)C(=O)Nc2ccc(OC)cc2)cc1 (stereo not drawn) | 10.2
COC(=O)c1ccc(CSc2nnc(NC(=O)C3CCCO3)s2)cc1 (stereo not drawn) | -23.5
COc1ccc(CCC(=O)O)c(O)c1 | 9.96
COc1cccc(CN2CC(C(=O)NC3(c4ccccc4)CC3)CCC2=O)c1 (stereo not drawn) | -7.23
CCC(NC(=O)c1cc(COc2ccc(C)nc2)on1)c1ccc(C)cc1 (stereo not drawn) | -19.3
Cc1cc([N+](=O)[O-])cc2c1-c1ncccc1C2=Nc1ccccc1 | -9.15
O=C(OCN1C(=O)C(=O)c2ccccc21)c1ccc(Cl)cc1 | 26.6
CCC(CC)NC(=O)COC(=O)c1ccc(OCC(=O)Nc2ccccc2OC)c(OC)c1 | 11.4
Cn1c(=O)[nH]c(=O)c2c1nc(SCC(=O)O)n2Cc1ccccc1 | -5.45
CCOc1ccc(CCNC(=O)CSCC(=O)Nc2ccc(OC)cc2)cc1OCC | 11.5
CC(C)Cc1nc(Nc2ccccc2C#N)c2nnn(Cc3ccccc3)c2n1 | -13.5
O=C(OCc1ccc(Br)cc1)c1cnc(Cl)c(Cl)c1 | 25.2

SMILES | hERG current change (%, negative = inhibition) at 10uM [%]
CC(OC(=O)c1ncc(Cl)c(Cl)c1Cl)C(=O)NC1CCCCC1C (stereo not drawn) | 7.43
Cl.OCCCCNCc1ccc(OCc2ccc(Cl)cc2Cl)cc1 | -51.6
O=C(Nc1ccccc1)Nc1nnc(COc2ccccc2F)s1 | 1.23
O=C(Nc1ccc(Cl)c(S(=O)(=O)N2CCCCC2)c1)C1=COCCO1 | -39.6
COc1ccccc1N1CCN(C(=O)c2c(C)cc(=O)oc2C)CC1 | 19.1
Cc1cc(C)c(C(=O)CSc2nnc(C)s2)c(C)c1 | 18.2
CC1(C)CC(C(=O)Nc2nccs2)CCO1 (stereo not drawn) | 3.2
CSCC(C)N1CCC(n2nccc2NC(=O)CCOc2ccccc2)CC1 (stereo not drawn) | -15.7
O=C1NCC(c2ccccc2)C1C(=O)N/N=C/c1ccc(Cl)s1 (stereo not drawn) | 13.4
CCOC(=O)C(=O)Nc1nnc(CCc2ccccc2)s1 | 6.37
O=C(O)CP(=O)(c1ccccc1)c1ccccc1 | 11.9
CCOc1ccc(OCC)c(NC(=O)CSc2nnc(-c3cccnc3)o2)c1 | -27.3
COc1ccccc1CNC(=O)CCN1C(=O)COc2ccc(C)cc21 | 9.51
O=C(CN1C(=O)NC2(CCCC2)C1=O)NCC1CCCO1 (stereo not drawn) | 9.06
Cc1ccc(S(=O)(=O)Nc2ccc(SC(F)F)cc2)c(C)c1 | 10.3
O=C(c1ccc(F)cc1)N1CCC(C(=O)N2CCN(S(=O)(=O)c3ccccc3Br)CC2)CC1 | -32.6
Cc1cc(C)c(S(C)(=O)=O)c(NN)n1 | 21.2
COC(=O)c1scc(C)c1NC(=O)c1ccc(Cl)cc1 | -43.1
COc1ccc(CCNC(=O)Nc2cccc([N+](=O)[O-])c2)cc1OC | -14.4
